# In paper PMC9911399, “Two distinct binding modes provide the RNA-binding protein RbFox with extraordinary sequence specificity”:
# Numbering of substitutions follows the chain as printed; changes in the protein carry UniProt numbers. The list shows a part of the results.
# T1: RBFOX1 RRM (Homo sapiens, UniProt Q9NWB1 109-208)
# T1 sequence: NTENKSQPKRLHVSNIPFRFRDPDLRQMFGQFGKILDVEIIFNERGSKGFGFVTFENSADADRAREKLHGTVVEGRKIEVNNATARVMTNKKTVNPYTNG
# B1: GGCCGAA (DNA:RNA)
# RNA: GGGAGACCGGAAUUCAGAUUGUCCGGCCGAAUUAAAUCCCGUCGUAGCCACCA
# DNA 1: CAATCTGAATTCCGGTCTCCC
# DNA 2: TGGTGGCTACGACGGGATT
# B2: UACCCCA (DNA:RNA)
# RNA: B1 RNA with G25U, G26A, G29C, A30C
# DNA 1: CAATCTGAATTCCGGTCTCCC
# DNA 2: TGGTGGCTACGACGGGATT
# B3: UCUGCCA (DNA:RNA)
# RNA: B1 RNA with G25U, G26C, C27U, C28G, G29C, A30C
# DNA 1: CAATCTGAATTCCGGTCTCCC
# DNA 2: TGGTGGCTACGACGGGATT
# B4: GAUGGCC (DNA:RNA)
# RNA: B1 RNA with G26A, C27U, C28G, A30C, A31C
# DNA 1: CAATCTGAATTCCGGTCTCCC
# DNA 2: TGGTGGCTACGACGGGATT
# B5: CCAGGUC (DNA:RNA)
# RNA: B1 RNA with G25C, G26C, C27A, C28G, A30U, A31C
# DNA 1: CAATCTGAATTCCGGTCTCCC
# DNA 2: TGGTGGCTACGACGGGATT
# B6: AUAUCAG (DNA:RNA)
# RNA: B1 RNA with G25A, G26U, C27A, C28U, G29C, A31G
# DNA 1: CAATCTGAATTCCGGTCTCCC
# DNA 2: TGGTGGCTACGACGGGATT
# B7: UCUGUUA (DNA:RNA)
# RNA: B1 RNA with G25U, G26C, C27U, C28G, G29U, A30U
# DNA 1: CAATCTGAATTCCGGTCTCCC
# DNA 2: TGGTGGCTACGACGGGATT
# B8: CAGUCUA (DNA:RNA)
# RNA: B1 RNA with G25C, G26A, C27G, C28U, G29C, A30U
# DNA 1: CAATCTGAATTCCGGTCTCCC
# DNA 2: TGGTGGCTACGACGGGATT
# B9: GGGCAGC (DNA:RNA)
# RNA: B1 RNA with C27G, G29A, A30G, A31C
# DNA 1: CAATCTGAATTCCGGTCTCCC
# DNA 2: TGGTGGCTACGACGGGATT
# B10: GUCGAAC (DNA:RNA)
# RNA: B1 RNA with G26U, C28G, G29A, A31C
# DNA 1: CAATCTGAATTCCGGTCTCCC
# DNA 2: TGGTGGCTACGACGGGATT
# B11: UGAGGAG (DNA:RNA)
# RNA: B1 RNA with G25U, C27A, C28G, A31G
# DNA 1: CAATCTGAATTCCGGTCTCCC
# DNA 2: TGGTGGCTACGACGGGATT
# B12: UCGGUAC (DNA:RNA)
# RNA: B1 RNA with G25U, G26C, C27G, C28G, G29U, A31C
# DNA 1: CAATCTGAATTCCGGTCTCCC
# DNA 2: TGGTGGCTACGACGGGATT
# B13: GCCCACU (DNA:RNA)
# RNA: B1 RNA with G26C, G29A, A30C, A31U
# DNA 1: CAATCTGAATTCCGGTCTCCC
# DNA 2: TGGTGGCTACGACGGGATT
# B14: CUAAUAC (DNA:RNA)
# RNA: B1 RNA with G25C, G26U, C27A, C28A, G29U, A31C
# DNA 1: CAATCTGAATTCCGGTCTCCC
# DNA 2: TGGTGGCTACGACGGGATT
# B15: GCGAGGC (DNA:RNA)
# RNA: B1 RNA with G26C, C27G, C28A, A30G, A31C
# DNA 1: CAATCTGAATTCCGGTCTCCC
# DNA 2: TGGTGGCTACGACGGGATT
# B16: ACAGUCC (DNA:RNA)
# RNA: GGGAGACCGGAAUUCAGAUUGUCCACAGUCCUUAAAUCCCGUCGUAGCCACCA
# DNA 1: CAATCTGAATTCCGGTCTCCC
# DNA 2: TGGTGGCTACGACGGGATT
# B17: UGCGGAG (DNA:RNA)
# RNA: B1 RNA with G25U, C28G, A31G
# DNA 1: CAATCTGAATTCCGGTCTCCC
# DNA 2: TGGTGGCTACGACGGGATT
# B18: GUCAAAA (DNA:RNA)
# RNA: B1 RNA with G26U, C28A, G29A
# DNA 1: CAATCTGAATTCCGGTCTCCC
# DNA 2: TGGTGGCTACGACGGGATT
# B19: UCUACGU (DNA:RNA)
# RNA: B16 RNA with A25U, A27U, G28A, U29C, C30G, C31U
# DNA 1: CAATCTGAATTCCGGTCTCCC
# DNA 2: TGGTGGCTACGACGGGATT
# B20: AAGCGAG (DNA:RNA)
# RNA: B1 RNA with G25A, G26A, C27G, A31G
# DNA 1: CAATCTGAATTCCGGTCTCCC
# DNA 2: TGGTGGCTACGACGGGATT
# B21: GGAUGGA (DNA:RNA)
# RNA: B1 RNA with C27A, C28U, A30G
# DNA 1: CAATCTGAATTCCGGTCTCCC
# DNA 2: TGGTGGCTACGACGGGATT
# B22: AGGCACC (DNA:RNA)
# RNA: B16 RNA with C26G, A27G, G28C, U29A
# DNA 1: CAATCTGAATTCCGGTCTCCC
# DNA 2: TGGTGGCTACGACGGGATT
# B23: GCACAUC (DNA:RNA)
# RNA: B16 RNA with A25G, G28C, U29A, C30U
# DNA 1: CAATCTGAATTCCGGTCTCCC
# DNA 2: TGGTGGCTACGACGGGATT
# B24: UUAGAAG (DNA:RNA)
# RNA: B16 RNA with A25U, C26U, U29A, C30A, C31G
# DNA 1: CAATCTGAATTCCGGTCTCCC
# DNA 2: TGGTGGCTACGACGGGATT
# B25: ACCCGAA (DNA:RNA)
# RNA: B1 RNA with G25A, G26C
# DNA 1: CAATCTGAATTCCGGTCTCCC
# DNA 2: TGGTGGCTACGACGGGATT
# B26: UGAAUAG (DNA:RNA)
# RNA: B16 RNA with A25U, C26G, G28A, C30A, C31G
# DNA 1: CAATCTGAATTCCGGTCTCCC
# DNA 2: TGGTGGCTACGACGGGATT
# B27: UUAUUGU (DNA:RNA)
# RNA: B16 RNA with A25U, C26U, G28U, C30G, C31U
# DNA 1: CAATCTGAATTCCGGTCTCCC
# DNA 2: TGGTGGCTACGACGGGATT
# B28: UGCACAU (DNA:RNA)
# RNA: B1 RNA with G25U, C28A, G29C, A31U
# DNA 1: CAATCTGAATTCCGGTCTCCC
# DNA 2: TGGTGGCTACGACGGGATT
# B29: UAAAUCG (DNA:RNA)
# RNA: B16 RNA with A25U, C26A, G28A, C31G
# DNA 1: CAATCTGAATTCCGGTCTCCC
# DNA 2: TGGTGGCTACGACGGGATT
# B30: GUCUCAC (DNA:RNA)
# RNA: B1 RNA with G26U, C28U, G29C, A31C
# DNA 1: CAATCTGAATTCCGGTCTCCC
# DNA 2: TGGTGGCTACGACGGGATT
# B31: ACUCGCC (DNA:RNA)
# RNA: B16 RNA with A27U, G28C, U29G
# DNA 1: CAATCTGAATTCCGGTCTCCC
# DNA 2: TGGTGGCTACGACGGGATT
# Target: T1, RBFOX1 RRM
# Experiment: EMSA; HiTS-Eq, 1 nM pool, 10 min; buffer printed only for the single-RNA assays: 10 mM Tris pH 7.5, 150 mM NaCl, 3.4 mM EDTA, 0.001% NP-40, 30 C
# Details: tags: His6 N-terminal (pET28a); label: 5' 32P
# Summary of the method: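 Purified RbFox RRM, wild type or mutant, was incubated for 10 min in 50 µL with 1 nM of a 5′-radiolabelled RNA pool carrying 7 randomized nucleotides, whose flanks were annealed to DNA oligonucleotides, over a series of increasing protein concentrations. Unbound RNA was resolved on 8% native PAGE, cut out, reverse-transcribed, barcoded by PCR and sequenced on an Illumina HiSeq 2500. Relative association constants were derived from changes in read counts for each RNA species versus the control reaction and normalised to the cognate motif.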
row,Binder,binding signal
1,B1,0.00907 KA relative to UGCAUGU
2,B2,0.000257 KA relative to UGCAUGU
3,B3,0.00928 KA relative to UGCAUGU
4,B4,0.0214 KA relative to UGCAUGU
5,B5,0.0114 KA relative to UGCAUGU
6,B6,0.00629 KA relative to UGCAUGU
7,B7,0.0122 KA relative to UGCAUGU
8,B8,0.00506 KA relative to UGCAUGU
9,B9,0.0145 KA relative to UGCAUGU
10,B10,0.0123 KA relative to UGCAUGU
11,B11,0.0109 KA relative to UGCAUGU
12,B12,0.0174 KA relative to UGCAUGU
13,B13,0.00358 KA relative to UGCAUGU
14,B14,0.00176 KA relative to UGCAUGU
15,B15,0.0102 KA relative to UGCAUGU
16,B16,0.0017 KA relative to UGCAUGU

row,Binder,binding signal
1,B17,0.0207 KA relative to UGCAUGU
2,B18,0.00273 KA relative to UGCAUGU
3,B19,0.00715 KA relative to UGCAUGU
4,B20,0.0101 KA relative to UGCAUGU
5,B21,0.0107 KA relative to UGCAUGU
6,B22,0.00933 KA relative to UGCAUGU
7,B23,0.00753 KA relative to UGCAUGU
8,B24,0.0141 KA relative to UGCAUGU
9,B25,0.00259 KA relative to UGCAUGU
10,B26,0.0154 KA relative to UGCAUGU
11,B27,0.0162 KA relative to UGCAUGU
12,B28,0.0108 KA relative to UGCAUGU
13,B29,0.00678 KA relative to UGCAUGU
14,B30,0.0111 KA relative to UGCAUGU
15,B31,0.00741 KA relative to UGCAUGU
